Measurements as given in paper PMC4336329 (PLoS ONE, 2015).
Out of some 310,000 compounds screened, about 14,000 (4.5%) showed an effect of 50% or more. The effect is printed as a negative number. Some of the results follow.

Target: human ether-à-go-go-related gene (hERG) potassium channel (human, UniProt Q12809)
Experiment: primary screen, population patch clamp on CHO cells stably expressing hERG
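Note: peak tail current of the secondary pulse compared with the same well before compound.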

Sequence of human ether-à-go-go-related gene (hERG) potassium channel (Q12809 whole entry, looked up): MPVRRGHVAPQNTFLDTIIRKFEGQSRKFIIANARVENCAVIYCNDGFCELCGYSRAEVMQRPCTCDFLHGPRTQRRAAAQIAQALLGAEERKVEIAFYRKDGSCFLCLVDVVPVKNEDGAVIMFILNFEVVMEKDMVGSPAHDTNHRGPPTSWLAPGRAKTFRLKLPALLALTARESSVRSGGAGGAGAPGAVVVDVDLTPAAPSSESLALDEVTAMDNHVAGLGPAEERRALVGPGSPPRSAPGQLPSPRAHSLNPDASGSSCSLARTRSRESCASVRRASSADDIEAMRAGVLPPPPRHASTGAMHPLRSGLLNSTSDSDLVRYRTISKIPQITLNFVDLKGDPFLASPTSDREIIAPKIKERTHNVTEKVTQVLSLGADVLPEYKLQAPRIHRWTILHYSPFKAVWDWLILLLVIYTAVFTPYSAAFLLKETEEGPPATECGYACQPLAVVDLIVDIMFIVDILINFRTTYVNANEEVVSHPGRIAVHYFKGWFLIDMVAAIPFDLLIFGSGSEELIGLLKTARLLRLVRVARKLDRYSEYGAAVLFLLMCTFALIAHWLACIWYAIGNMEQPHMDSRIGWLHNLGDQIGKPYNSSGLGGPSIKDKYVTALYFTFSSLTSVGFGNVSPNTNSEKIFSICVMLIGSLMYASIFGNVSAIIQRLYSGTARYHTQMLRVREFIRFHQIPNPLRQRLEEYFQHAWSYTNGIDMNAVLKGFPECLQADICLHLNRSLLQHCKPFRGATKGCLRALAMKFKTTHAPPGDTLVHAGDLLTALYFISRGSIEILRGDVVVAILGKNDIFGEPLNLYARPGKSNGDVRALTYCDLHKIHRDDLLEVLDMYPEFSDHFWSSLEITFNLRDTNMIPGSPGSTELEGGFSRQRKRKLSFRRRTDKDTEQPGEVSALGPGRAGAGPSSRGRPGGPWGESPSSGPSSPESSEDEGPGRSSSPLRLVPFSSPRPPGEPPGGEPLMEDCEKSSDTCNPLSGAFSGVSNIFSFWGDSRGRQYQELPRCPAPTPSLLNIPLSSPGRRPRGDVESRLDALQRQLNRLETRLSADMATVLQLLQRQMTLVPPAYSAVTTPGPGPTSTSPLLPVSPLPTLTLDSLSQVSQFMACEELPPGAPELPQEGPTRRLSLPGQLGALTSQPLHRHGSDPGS

Point of comparison: `CCOC(=O)c1cnc(-n2nc(C)cc2C)nc1Nc1cccc(C(=O)O)c1`, “hERG current change (%, negative = inhibition) at 10uM” value 0.0989%. Against it:
- CCc1ccccc1N(CC(=O)NC(C)(C)C)C(=O)CCC(=O)Nc1ccccn1 — higher, 27.6%
- COc1cc(NC(=S)NCCCN2CCOCC2)cc(OC)c1OC — lower, -3.22%
- COc1ccc(C2(CNC(=O)C(c3ccccc3)c3ccccc3)CCOCC2)cc1OC — higher, 4.38%
- N#CCOc1nc(N2CCCCC2)nc(N2CCCCC2)n1 — lower, -21.8%
- Cc1cc(OCc2cc(C(=O)N3CCCCCC3)no2)cc(C)c1Cl — higher, 11.8%
- Cc1ccc2nc3c(c(Nc4ccc(O)cc4)c2c1)CCC3.Cl — lower, -21.2%
- CC(C)Oc1ccc(C(CCNCc2ccc(O)cc2)c2ccccc2)cc1 (stereo not drawn) — lower, -58.7%
- CCc1nc(SCC(=O)N2CCCC2)c2c(=O)n(C)c(=O)n(C)c2n1 — lower, -15.4%
- CC1CCCCN1CCCNC(=O)CN1C(=O)c2cccnc2Oc2ccc(Cl)cc21 (stereo not drawn) — higher, 5.94%
- COC1=C/C(=C/c2c(O)c(C#N)c3ccccn23)C=CC1=O — higher, 24%
- O=C1CCCN2N=C(SCC(=O)N3CCCCC3)SC2=N1 — higher, 13.2%
- COc1cc(C2c3c(-c4ccccc4)n[nH]c3C(=O)N2c2ccccc2)ccc1O (stereo not drawn) — lower, -13%
- CC1=Nc2ccccc2/C1=C/c1sc(=N)n(-c2nccs2)c1O — higher, 10.5%
- COCCCNC(=S)N1CCC(NC(=O)c2ccco2)CC1 — lower, -4.82%
- COc1ccc(CC(=O)N/N=C(\C)CC(=O)Nc2ccc3c(c2)OCCO3)cc1 — higher, 8.58%
- O=C(/C=C/c1ccccc1)n1cnnc1SC/C=C/c1ccccc1 — lower, -0.689%
- COc1ccc(-n2c(-c3ccc(Br)cc3)nc(=S)c3c2CCCC3)cc1 — lower, -1.32%
- CCn1c(C)nc2cc(C(=O)NNC(=O)CCC3CCCCC3)ccc21 — lower, -27.4%
- Cn1c2ccccc2c(=O)c2c(=O)n(Cc3ccccc3)c(-c3ccc(F)cc3)nc21 — higher, 15.5%
- COc1cccc(C(C(=O)NC2CCCCC2)N(CCN2CCOCC2)C(=O)C2COc3ccccc3O2)c1 (stereo not drawn) — lower, -31.3%
- CCOc1ccc(Nc2cc(C)nc3ccc(C)cc23)cc1 — lower, -69.6%
- CCCCCC(=O)Nc1ccc(C(=O)COC(=O)CN2C(=O)NC3(CCCC3)C2=O)cc1 — higher, 7.37%
- Cn1c2ccccc2c(=O)c2ccc(C#CC3(O)CCCCC3)cc21 — higher, 1.63%
